Values joined by “and” are separate entries in the source; they are usually repeats but may differ in a detail not shown here. Identical values can stand only once.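 Cells were grown in 96-well plates and exposed to each compound for 48 hours at five concentrations; endpoints were interpolated linearly between bracketing concentrations, or set to the highest concentration if not reached. GI50 is the concentration that inhibits growth by half. TGI: concentration producing complete growth inhibition.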 Numbered stars: 1 amine (or outer) side, 2 acyl side, 3 side chain; on linkers, the order of the positions; unused ones are H or OH. Bridge positions count the residues as written; N and C are the ends. Square brackets hold non-standard residues; d marks the D form. Peptide text beside a SMILES is read from it. I, II: the chains in the order shown. Actinocin(9to1) = Cc1c2oc3c(C)ccc(C(=O)[*:1])c3nc-2c(C(=O)[*:2])c(N)c1=O; NMeV = CN[CH](C(=O)O)C(C)C; Sar = CNCC(=O)O
system: NCI-H322M lung; assay: NCI anticancer screen, dose series, 48 h

SMILES	TGI [µM]	GI50
Cc1c2oc3c(C)ccc(C(=O)NC4C(=O)NC(Cc5ccccc5)C(=O)N5CCCC5C(=O)N(C)CC(=O)N(C)C(C(C)C)C(=O)OC4C)c3nc-2c(C(=O)NC2C(=O)NC(Cc3ccccc3)C(=O)N3CCCC3C(=O)N(C)CC(=O)N(C)C(C(C)C)C(=O)OC2C)c(N)c1=O (stereo not drawn) (I: TFP[Sar][NMeV] / II: TFP[Sar][NMeV]; ester I:1-I:C, II:1-II:C; linker I:N-II:N via Actinocin(9to1); configuration not given here)	0.071	
ClC(Cl)=C(Cl)C1(Cl)CC1COCc1ccccc1 (stereo not drawn)	> 100	
O=[N+]([O-])c1cc[n+]([O-])c2ccccc12	0.405	0.104 µM
C#CC(O)(c1nc2ccccc2s1)c1nc2ccccc2s1	98.4	
O=C1c2cc(Cc3ccccc3)c(=O)c(Cc3ccccc3)cc2C(=O)c2cc(Cc3ccccc3)c(=O)c(Cc3ccccc3)cc21	> 100	
C=CO/N=[N+](\[O-])N(CC)CC	> 100	
CN(C)C(=O)Nc1nc2cc(Cl)c(Cl)cc2[nH]1	> 100	10.2 µM
COc1cc2cc(C(=O)N3CC(COS(C)(=O)=O)c4ccc(NC(=O)OCc5ccccc5)cc43)[nH]c2c(OC)c1OC (stereo not drawn)	> 100	
COc1cc(/C=C2\CC/C(=C\c3cc(OC)c(O)c(OC)c3)C2=O)cc(OC)c1O	> 100	
Cc1ccc(S(=O)(=O)NC(CCC(=O)NNc2ccccc2)C(=O)NNc2ccccc2)cc1 (stereo not drawn)	> 100	
COc1cc(CNc2nc3c(N)cc(C(F)(F)F)cc3nc2-c2ccccc2)cc(OC)c1OC	> 100	> 100 µM
COc1ccc(-n2c(=O)c3[nH]c(=S)[nH]c3n(-c3ccc(OC)cc3)c2=S)cc1	> 100	
O=C1NC(N/N=C\C(O)C(O)C(O)C(O)CO)=N/C1=C/c1ccccc1 (stereo not drawn)	> 100	> 100 µM and 28.4 µM
O=C1C2C(C(=O)N1c1ccccc1)C1c3ccccc3C2C2C(=O)N(c3ccccc3)C(=O)C21 (stereo not drawn)	> 100	
NC(CCCC(N)P(=O)(O)O)C(=O)O (stereo not drawn)	> 100	
O=[N+]([O-])/C=C/c1c(Cl)cccc1Cl	30.6	
O=C1CCCNn2c(nc3ncccc3c2=O)N1	> 100	
CCn1c(=O)c2nc(SC)sc2n(-c2ccc(C)cc2)c1=O	> 100	
COC1C(OC(=O)c2ccc(C)[nH]2)C(O)C(Oc2ccc3c(O)c(NC(=O)c4c[nH]c(C(=O)Nc5c(O)c6ccc(OC7OC(C)(C)C(OC)C(OC(=O)c8ccc(C)[nH]8)C7O)c(C)c6oc5=O)c4C)c(=O)oc3c2C)OC1(C)C (stereo not drawn)	10.6	
C=C(C(=O)O[C@H]1C/C(C)=C/CC/C(CO)=C/[C@H]2C(=O)OC(=C)[C@H]12)C(O)CO (stereo partly drawn)	34.4	
COc1ccccc1OCC(COC(=O)Nc1ccccc1)OC(=O)Nc1ccccc1 (stereo not drawn)	> 100	

SMILES	TGI [µM]	GI50
O=C(CCN1CCCC1)Nc1ccc2c(NCc3ccccc3)c3ccccc3nc2c1	1.72	0.359 µM
N#Cc1c(-c2ccc(Cl)cc2)cc(-c2ccc(Nc3ccnc4cc(Cl)ccc34)cc2)[nH]c1=O	> 100	
CCOC(=O)C1CC(C(=O)c2ccccc2)N2c3ccccc3-c3ccccc3C12 (stereo not drawn)	> 100	
COc1ccc(-c2c(C)c(C(=O)O)nc(-c3ccc4c(O)c(OC)c5c(c4n3)=NC(C)(C)N=5)c2N)c(O)c1OC	73.1	
O=c1c2c([nH]c3nccn13)CCC2	> 10	
c1ccc(-c2nn3c(c2-c2ccnc4cc(OCCN5CCOCC5)ccc24)CCC3)nc1	> 100	55.8 µM
COc1ccc(/C=C(/c2ccccc2)[N+](=O)[O-])c(OC)c1	2.77	1.43 µM
C(/C=N/NC1=NCCCCN1)=N\NC1=NCCCCN1	> 100	
COc1ccc(C#Cn2nnc3ccccc32)cc1	> 100	
COc1cccc(N=N/C(=N/NC(=O)c2ccc(C)cc2)c2ccc(N(CCC#N)CCC#N)cc2OC)c1	36.8	
NCCCN(CCCCN(CCCN)C(=O)OCc1ccccc1)C(=O)OCc1ccccc1	> 100	
FC(F)(F)c1cc(N(C2c3ccccc3C=Cc3ccccc32)P(Cl)Cl)cc(C(F)(F)F)c1	74	
[2H]C([2H])([2H])NC(=O)c1nnc(NC(=O)C2CC2)cc1Nc1cccc(-c2ncn(C)n2)c1OC	> 100	8.11 µM
CC(=O)O[C@H]1CC[C@@]2(C)C(=CC[C@@H]3[C@@H]2CC[C@]2(C)C(=N/O)/C(=C\c4ccccc4)C[C@@H]32)C1	61.2	
NS(=O)(=O)c1nc(S(=O)(=O)O)c2[nH]cnc2n1	> 100	
Oc1c(C(Nc2ccccc2Br)c2ccccc2)ccc2cccnc12 (stereo not drawn)	> 100	4.57 µM
NC(Cc1ccc(OCc2ccccc2)cc1)C(=O)NC(Cc1ccccc1)C(=O)Oc1c(Cl)c(Cl)c(Cl)c(Cl)c1Cl (stereo not drawn)	34	
CCCCC(SC(=S)N1CCCC1)C(=O)Nc1nc(CC(=O)OCC)cs1 (stereo not drawn)	> 100	> 100 µM
C#CC1(O)CCC2C3CCc4cc(Oc5nc(F)nc(-c6c7ccccc7c7n6CCS7)n5)ccc4C3CC[C@@]21C (stereo partly drawn)	> 100	
CCCCCCCCCCCC1=NC(C)(C)CN1C(C)(C)CO	31.2	6.19 µM
C#CC[C@@]12CC(=O)C[C@@H]1CCC1(C2)OCCO1 (tested in a mixture with another compound)	> 100	
